Molecules are shown by their SMILES. In all, about 310,000 compounds went through this assay and about 2,200 (0.71%) showed an effect of 50% or more. The effect is printed as a negative number. The list shows a part of the results.

This experiment deals with human ether-à-go-go-related gene (hERG) potassium channel (human, UniProt Q12809). Kind of experiment: primary screen, population patch clamp on CHO cells stably expressing hERG.
Chain of human ether-à-go-go-related gene (hERG) potassium channel (Q12809 whole entry, looked up): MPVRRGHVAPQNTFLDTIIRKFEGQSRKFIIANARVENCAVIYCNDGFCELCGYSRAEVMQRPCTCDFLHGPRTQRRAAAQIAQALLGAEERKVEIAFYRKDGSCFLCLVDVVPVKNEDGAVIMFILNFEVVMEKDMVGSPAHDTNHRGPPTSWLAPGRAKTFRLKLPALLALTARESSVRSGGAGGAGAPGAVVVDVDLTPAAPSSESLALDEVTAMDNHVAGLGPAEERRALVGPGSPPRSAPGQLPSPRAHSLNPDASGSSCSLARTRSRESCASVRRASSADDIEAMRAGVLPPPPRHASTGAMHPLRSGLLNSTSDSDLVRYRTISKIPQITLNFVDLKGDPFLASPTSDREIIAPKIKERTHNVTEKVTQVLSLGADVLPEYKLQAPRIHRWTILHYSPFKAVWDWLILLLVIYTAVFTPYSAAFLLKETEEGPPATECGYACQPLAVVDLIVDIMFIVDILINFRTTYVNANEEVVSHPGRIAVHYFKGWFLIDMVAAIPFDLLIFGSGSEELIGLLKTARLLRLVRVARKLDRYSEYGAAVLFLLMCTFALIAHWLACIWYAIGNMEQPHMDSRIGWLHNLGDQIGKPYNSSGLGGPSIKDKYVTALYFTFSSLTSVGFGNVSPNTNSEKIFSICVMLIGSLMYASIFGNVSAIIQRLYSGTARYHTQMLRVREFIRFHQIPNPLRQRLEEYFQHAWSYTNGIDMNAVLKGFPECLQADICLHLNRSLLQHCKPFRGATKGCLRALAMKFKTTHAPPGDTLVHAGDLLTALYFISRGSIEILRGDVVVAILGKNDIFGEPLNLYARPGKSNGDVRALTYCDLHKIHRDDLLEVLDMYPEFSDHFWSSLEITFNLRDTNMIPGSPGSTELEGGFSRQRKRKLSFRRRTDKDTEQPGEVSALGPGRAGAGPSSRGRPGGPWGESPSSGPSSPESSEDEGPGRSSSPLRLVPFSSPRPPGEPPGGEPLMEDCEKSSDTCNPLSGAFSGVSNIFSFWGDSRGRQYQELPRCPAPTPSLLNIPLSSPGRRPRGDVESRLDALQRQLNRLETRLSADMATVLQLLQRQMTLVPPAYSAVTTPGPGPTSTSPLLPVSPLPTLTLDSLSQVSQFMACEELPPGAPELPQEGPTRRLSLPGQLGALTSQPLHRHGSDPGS
With `O=C(CSc1nnc(NC(=O)c2ccccc2[N+](=O)[O-])s1)NCc1ccco1`, the “hERG current change (%, negative = inhibition) at 1uM” value is given as 9.5%.
On to `COc1ccc(C2=NN(C(=O)c3cccs3)C(O)(C(F)(F)F)C2)cc1` (centres unmarked), for which the “hERG current change (%, negative = inhibition) at 1uM” value turned out to be 4.33%.
The same measure for `Cc1cc(Cl)ccc1OC(C)C(=O)OCC(=O)Nc1ccc2[nH]c(=O)[nH]c2c1` (centres unmarked): -3.17%; for `CCn1nc(C(=O)OCc2c(C)noc2C)c2ccccc2c1=O`: 0.701%; for `CCCC(C)C(=O)Nc1cc([N+](=O)[O-])ccc1Cl` (centres unmarked): 16.8%.
Consider `CN(CC(=O)Nc1ccccc1Br)C(=O)c1ccc(COc2ccccc2)cc1`, for which the “hERG current change (%, negative = inhibition) at 1uM” value is reported as 9.47%.
Consider `Cn1c(SCC(=O)N/N=C/C=C\c2ccco2)nc2ccccc21`, for which the “hERG current change (%, negative = inhibition) at 1uM” value is listed as -13.7%.
Consider `COc1cccc(C2=NOC(C(=O)NCc3ccccc3)C2)c1` (centres unmarked), for which the “hERG current change (%, negative = inhibition) at 1uM” value is 2.78%.
Consider `Nc1ccc(S(=O)(=O)N2CCCc3ccccc32)cc1`, for which the “hERG current change (%, negative = inhibition) at 1uM” value was -1.98%.
In the case of `C=C1CN(CC(=O)OC)S(=O)(=O)c2ccccc21`, the “hERG current change (%, negative = inhibition) at 1uM” value turned out to be 8.37%.
Regarding `Cc1cc(=O)oc2cc(OCC(=O)NCCCn3ccnc3)ccc12`, the “hERG current change (%, negative = inhibition) at 1uM” value turned out to be 10.4%.
As to `c1ccc(N2CCN(c3cnccn3)CC2)nc1`, the “hERG current change (%, negative = inhibition) at 1uM” value is 19.8%.
For the compound `COC(=O)C1=C(C(=O)OC)N2C=CC=CC2(C)C(C(=O)OC)=C1C(=O)OC` (centres unmarked), the “hERG current change (%, negative = inhibition) at 1uM” value turned out to be 1.82%.
To `Cc1ccc(NC(=O)c2ccccc2OCC(=O)Nc2ccccc2F)cc1S(=O)(=O)N(C)C` belongs 9.6%; to `CC(C)C[C@@H](CN=[N+]=[N-])N1CCN(C)CCC1=O`, 13.1%; to `O=C(CNc1ccccc1)NNC1=NCCC1`, -0.636%.
As for `COc1ccc(N(CC(=O)Nc2ccc3c(c2)OCCO3)S(=O)(=O)c2c(C)nn(C)c2C)cc1`, the “hERG current change (%, negative = inhibition) at 1uM” value was 3.03%.
As for `CCOc1ccc2oc(=O)cc(CN3CCN(Cc4ccccc4)CC3)c2c1`, the “hERG current change (%, negative = inhibition) at 1uM” value is recorded as -15.5%.
In the case of `Cc1ccc(CN(Cc2ccccc2)C(=S)NCC(=O)N2CCC3(CC2)OCCO3)o1`, the “hERG current change (%, negative = inhibition) at 1uM” value was 6.68%.
For `COc1ccc(CCNC(=O)CCCn2c(=O)[nH]c3cc(OC)c(OC)cc3c2=O)cc1OC`, the “hERG current change (%, negative = inhibition) at 1uM” value was found to be 1.1%.
On to `COc1ccc(Sc2nnc(Cc3ccccc3)c3ccccc23)cc1`, for which the “hERG current change (%, negative = inhibition) at 1uM” value is given as -8.91%.
The same measure for `COC(=O)C1=C(c2cccc(OC)c2OC)C[C@@H]2CC[C@H]1N2C(=O)N1CCCCC1`: 12.2%; for `O=C(CN1C(=O)c2cccc3cccc1c23)NCc1ccccn1`: 15.5%; for `Cn1ncc(Br)c1C(=O)NC1CCCC1`: 11.1%.
As for `COc1cc(/C=C(/NC(=O)c2ccccc2)C(=O)Nc2ccc(O)cc2)c([N+](=O)[O-])cc1OC`, the “hERG current change (%, negative = inhibition) at 1uM” value was found to be 11.2%.
The same measure for `COc1cc(Nc2ncnc(N)n2)cc(OC)c1OC`: 11.2%.
To `CC(=O)OCC(=O)Nc1ccc(C(C)=O)cc1` belongs 0.594%; to `Cc1cccc(NC(=O)C2SC(=Nc3c(C)cccc3C)C(C(=O)N3CCOCC3)=C2N)c1` (centres unmarked), 12.8%.
For `CCNC(=O)c1cccc(NC(=O)C2CC(=O)N(CCc3ccccc3)C2)c1` (centres unmarked), the “hERG current change (%, negative = inhibition) at 1uM” value is given as 6.43%.
For `COc1ccc(C(=O)NC(=S)Nc2cccc(S(=O)(=O)N3CCOCC3)c2)cc1`, the “hERG current change (%, negative = inhibition) at 1uM” value was 9.36%.
`Cc1sc2ncn(CC(=O)NCC3COc4ccccc4O3)c(=O)c2c1S(=O)(=O)N1CCCCC1` (centres unmarked): the “hERG current change (%, negative = inhibition) at 1uM” value worked out at 9.92%.
Turning to `Cc1cccc(NC2=NCC(=O)N2CCc2ccccc2)c1`, the “hERG current change (%, negative = inhibition) at 1uM” value is given as -5.54%.
`O=C(O)/C=C/C(=O)N(Cc1ccc2c(c1)OCO2)C1CC(=O)N(CCc2ccccc2)C1=O` (centres unmarked): the “hERG current change (%, negative = inhibition) at 1uM” value is recorded as 14.6%.
For `COc1ccc(CC(=O)NNC(=O)CSc2nnc(Cc3ccc(OC)cc3)n2-c2ccccc2)cc1`, the “hERG current change (%, negative = inhibition) at 1uM” value is given as 1.61%.
Turning to `CCOC(=O)c1c(C)[nH]c(C(=O)OCC(=O)Nc2ccc(OCC)cc2)c1C`, the “hERG current change (%, negative = inhibition) at 1uM” value is -1.52%.
With `CCN(CC)c1ccc(N=Nc2ncn[nH]2)cc1`, the “hERG current change (%, negative = inhibition) at 1uM” value stood at 9.65%.
With `CCc1ccc(NC(=O)C2CCCCC2C(=O)O)cc1` (centres unmarked), the “hERG current change (%, negative = inhibition) at 1uM” value is 11.5%.
To `COc1cccc(-c2nnc(SCC(=O)NC3CCS(=O)(=O)C3)n2C)c1` (centres unmarked) belongs 2.08%; to `c1coc(-c2ccnc(-n3cccc3)n2)c1`, 10.1%; to `Cc1nnc(SCC2=C(C(=O)O)N3C(=O)C(NC(=O)c4cc(F)c(F)cc4Cl)C3SC2)s1` (centres unmarked), -2.66%.
Turning to `COC(=O)[C@]1(C)N[C@H](c2ccc(-c3ccccc3)cc2)[C@@H]2C(=O)N(C)C(=O)[C@@H]21.O=C(O)C(F)(F)F`, the “hERG current change (%, negative = inhibition) at 1uM” value stood at 15.8%.
To `O=C(CC1(O)C(=O)N(CN2CCOCC2)c2ccccc21)c1ccccc1` (centres unmarked) belongs -38.6%.
As to `CCOc1ccc(S(=O)(=O)NCc2ccc3c(c2)OCO3)cc1C(=O)O`, the “hERG current change (%, negative = inhibition) at 1uM” value was determined as 11.1%.
As to `CCN(CC)S(=O)(=O)c1ccc(C(=O)Nc2c3c(nn2C(C)(C)C)CS(=O)(=O)C3)cc1`, the “hERG current change (%, negative = inhibition) at 1uM” value amounted to 5.04%.

Values taken from publication PMC4336329 (PLoS ONE, 2015).
